{"source": "PubChem BioAssay AID743279", "about": "(National Center for Advancing Translational Sciences (NCATS), 2014)", "note": "Screen size: about 360,000 compounds; about 17,000 (4.7%) were called active. The inconclusive results got no clear call from the source; some entries with a clear call stand among them for comparison. Cut-off read from the data, not from the text of the source: active = activity change below about -50%; inconclusive = mostly about -30% to -49%; inactive = weaker than that. % is set by controls: 0 for no effect and ±100 for the full control effect.", "data": [{"assay": "qHTS for Inhibitors of Inflammasome Signaling: IL-1-beta AlphaLISA Primary Screen", "settings": "THP-1 LPS/ATP IL-1B secretion, 16 h, at 57.5 µM, hits give low values", "outline": "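THP-1 cells pretreated 1 hr with compounds (up to 57.5 uM final), then stimulated with LPS (250 ng/mL final) plus ATP (1.25 mM final); secreted IL-1B measured by AlphaLISA after 16 hr, decreased signal indicating inhibition.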", "values": [{"smiles": "O=c1ccc2cc(O[C@@H]3O[C@@H](CO)[C@H](O)[C@@H](O)[C@@H]3O)c(O)cc2o1", "activity change": "inactive: 46.9%"}, {"smiles": "CN1[C@@H]2CC[C@H]1CC(OC1c3ccccc3CCc3ccccc31)C2", "note": "(some centres undefined)", "activity change": "inconclusive: -30.6%"}, {"smiles": "CCOC(=O)c1c(N)n(CCN2CCOCC2)c2nc3ccccc3nc12", "activity change": "inconclusive: -33.9%"}, {"smiles": "O=C(Nc1ccc(Cl)c(Cl)c1)c1ccco1", "activity change": "inconclusive: -34.5%"}, {"smiles": "C=CCN1C(=O)NC(=O)/C(=C\\c2ccc(-c3ccccc3[N+](=O)[O-])o2)C1=O", "activity change": "active: -99.6%"}, {"smiles": "COC(=O)C1=C(c2cccc(OCc3ccccc3)c2)C[C@@H]2CC[C@H]1N2C(=O)NCCc1ccc(F)cc1", "activity change": "inconclusive: -46.5%"}, {"smiles": "O=C(Nc1ccc(Cl)cc1)N1CC2CC(C1)c1cccc(=O)n1C2", "note": "(centres undefined)", "activity change": "inactive: -0.983%"}, {"smiles": "O=C(COc1ccc(Cl)cc1)N1CCN(Cc2ccc([N+](=O)[O-])cc2)CC1", "activity change": "inactive: -22.6%"}, {"smiles": "COC(=O)C1=C(c2cccc(OCc3ccccc3)c2)C[C@@H]2CC[C@H]1N2C(=O)NCCCOC(C)C", "activity change": "inconclusive: -45.7%"}, {"smiles": "CC(=NCc1cccnc1)c1c(O)n(-c2ccccc2C)c(=O)[nH]c1=O", "activity change": "inactive: -4.07%"}, {"smiles": "COc1cc(Br)c(CNCCc2ccc3c(c2)OCO3)cc1OC", "activity change": "inconclusive: -39.4%"}, {"smiles": "CC(=O)OC1CC(OC2C(O)CC(OC3C(O)CC(OC4CCC5(C)C(CCC6C5CC(O)C5(C)C(C7=CC(=O)OC7)CCC65O)C4)OC3C)OC2C)OC(C)C1OC1OC(CO)C(O)C(O)C1O", "note": "(centres undefined)", "activity change": "active: -66%"}, {"smiles": "O=c1[nH]c2ccccc2n1C1CCN(C(c2ccnc3ccccc23)c2nnnn2Cc2ccccc2)CC1", "note": "(centres undefined)", "activity change": "inconclusive: -37.9%"}, {"smiles": "O=C1NC(=O)N(CCC2=CCCCC2)C(=O)/C1=C/c1cccs1", "activity change": "inconclusive: -41.3%"}, {"smiles": "Cc1ccc2c(c1)C1CN(C)CCC1N2C(=O)c1cn(-c2ccccc2)nc1-c1ccccc1", "note": "(centres undefined)", "activity change": "inconclusive: -44.5%"}, {"smiles": "COc1ccc(-n2c(/C=C/c3ccc(O)c(OC)c3)nc3ccccc3c2=O)cc1", "activity change": "active: -66.9%"}, {"smiles": "Cc1cc(/C=C2\\C(=O)NC(=O)N(c3ccc(Br)cc3)C2=O)c(C)n1-c1cc(C(=O)O)cc(C(=O)O)c1", "activity change": "inconclusive: -32.3%"}, {"smiles": "COc1cccc(-c2cc(C(F)(F)F)n3nc(C(=O)N4CCC5(CC4)OCCO5)cc3n2)c1", "activity change": "inconclusive: -45.3%"}, {"smiles": "COC12c3ccccc3-c3ccccc3C1C(C(=O)O)C2C(=O)O", "note": "(centres undefined)", "activity change": "inactive: 23.7%"}, {"smiles": "Cc1ccccc1N1CCN(Cc2ccc3c(c2)OCO3)CC1", "activity change": "inactive: -23%"}, {"smiles": "Cc1ccccc1CCNCc1cc2cccc(C)c2[nH]c1=O", "activity change": "inconclusive: -30.5%"}, {"smiles": "COC(=O)C1=C(c2ccc(-c3ccccc3)c(F)c2)C[C@@H]2CC[C@H]1N2C(=O)NC1CC1", "activity change": "inconclusive: -37.7%"}, {"smiles": "Cc1ccc(S(=O)(=O)N2CN3CCN(C3)C2)cc1", "activity change": "inactive: 0%"}, {"smiles": "Fc1cccc(C2NCCc3[nH]cnc32)c1", "note": "(centres undefined)", "activity change": "inactive: -2.47%"}, {"smiles": "Nc1c(C(=O)OCc2ccccc2)c2nc3ccccc3nc2n1Cc1cccs1", "activity change": "active: -90.1%"}, {"smiles": "CN(C)C(=O)Oc1ccc2c(c1)O/C(=C\\c1ccccc1)C2=O", "activity change": "inconclusive: -34.3%"}, {"smiles": "COc1ccc(Br)cc1CNCCc1ccc2c(c1)OCO2", "activity change": "inconclusive: -32.8%"}, {"smiles": "CCOC(=O)c1cccc(C2=C(CNC(=O)c3ccc([N+](=O)[O-])cc3)[C@H]3CC[C@@H](C2)N3Cc2ccccc2)c1", "activity change": "inactive: -4.73%"}, {"smiles": "CC(=O)c1cccc(OCC(=O)N2CCN(CC(=O)Nc3cccc(F)c3)CC2)c1", "activity change": "inactive: -10.5%"}, {"smiles": "CC[C@@]1(O)C(=O)OCc2c1cc1n(c2=O)Cc2cc3c(NC(=O)CN)cccc3nc2-1", "activity change": "inconclusive: -47.9%"}, {"smiles": "Oc1ccc2c3c1O[C@H]1c4oc5ccccc5c4C[C@@]4(O)[C@@H](C2)N(CC2CC2)CC[C@]314", "activity change": "active: -64.8%"}, {"smiles": "COC(=O)C1=C(c2ccc(OCc3ccccc3)cc2)C[C@@H]2CC[C@H]1N2C(=O)NC1CCN(Cc2ccccc2)CC1", "activity change": "inactive: -20.7%"}, {"smiles": "CSc1ccc(C(=O)C2CCCN(CCCn3cccn3)C2)cc1", "note": "(centres undefined)", "activity change": "inconclusive: -46.3%"}, {"smiles": "CC(C)OC(=O)C1C(=O)NC2(C)CC1c1ccccc1O2", "note": "(centres undefined)", "activity change": "inconclusive: -32.8%"}, {"smiles": "CCOC(=O)[C@]12Cc3ccc(C)cc3[C@H]1N(C1CCCCC1)C(=O)c1ccccc12", "activity change": "active: -118%"}, {"smiles": "COC(=O)C1=C(c2ccc(F)cc2OCc2ccccc2)C[C@@H]2CC[C@H]1N2C(=O)N1CCOCC1", "activity change": "inactive: 25.5%"}, {"smiles": "O=C1NCN(c2ccccc2)C12CCN(C(c1cccc3ccccc13)c1nnnn1-c1ccc3c(c1)OCCO3)CC2", "note": "(centres undefined)", "activity change": "inconclusive: -38%"}, {"smiles": "CCOC(=O)[C@]12Cc3cc(OC)ccc3[C@H]1N(C1CCCCC1)C(=O)c1cc(OC)ccc12", "activity change": "active: -114%"}, {"smiles": "CCCNC(=O)N1[C@H]2CC[C@@H]1C(C(=O)OC)=C(c1ccc(-c3ccccc3)c(F)c1)C2", "activity change": "inconclusive: -38.6%"}, {"smiles": "COc1cc(/C=C/[N+](=O)[O-])ccc1OC(=O)c1cccnc1", "activity change": "inconclusive: -39.3%"}, {"smiles": "CC(=O)C1(c2ccccc2)CCN(C(=O)C2CCC(=O)N(CCc3cccc(F)c3)C2)CC1", "note": "(centres undefined)", "activity change": "inactive: 9.3%"}, {"smiles": "COc1ccc(Oc2cc(NC(=O)c3nn(C)cc3[N+](=O)[O-])cc([N+](=O)[O-])c2)cc1", "activity change": "active: -96.2%"}, {"smiles": "COc1ccccc1N1C(=O)NC(=O)/C(=C/c2ccc3c4c(cccc24)CC3)C1=O", "activity change": "inconclusive: -33.1%"}, {"smiles": "CCOc1ccc(-n2c(O)c(C=Nc3ccc(N(CC)CC)cc3)c(=O)[nH]c2=O)cc1", "activity change": "inconclusive: -31.1%"}, {"smiles": "COC(=O)C1=C(c2ccc(F)cc2OCc2ccccc2)C[C@@H]2CC[C@H]1N2C(=O)NCc1ccccc1", "activity change": "inconclusive: -34.9%"}, {"smiles": "CN1CC(C(=O)c2ccc(F)cc2)C(c2ccc(F)cc2)C1", "note": "(centres undefined)", "activity change": "inconclusive: -49.3%"}, {"smiles": "Cc1cc(C)cc(NC(=S)NC2CC3CCCC(C2)N3Cc2cccs2)c1", "note": "(centres undefined)", "activity change": "inconclusive: -32.3%"}, {"smiles": "O=C1NC(=O)N(Cc2ccccc2)C(=O)/C1=C/C=C/c1ccco1", "activity change": "active: -97.8%"}, {"smiles": "CC1C(c2cccs2)=[N+]([O-])C(C)(C(=O)c2ccc(Cl)cc2)N1O", "note": "(centres undefined)", "activity change": "inconclusive: -30.2%"}, {"smiles": "CCOC(=O)[C@]12Cc3cc(C)ccc3[C@H]1N(CCC(=O)OC)C(=O)c1ccccc12", "activity change": "active: -113%"}, {"smiles": "CN1CCC(c2c[nH]c3ccccc23)C1", "note": "(centres undefined)", "activity change": "inconclusive: -35.5%"}, {"smiles": "CC(NCc1ccc(Cl)c(Cl)c1)C(O)c1ccccc1", "note": "(centres undefined)", "activity change": "inconclusive: -46.7%"}, {"smiles": "C[n+]1c(-c2ccccc2)cc(-c2ccc(Cl)cc2)cc1-c1ccccc1", "activity change": "active: -82.8%"}, {"smiles": "COc1cccc(NP(=O)(Oc2ccc(Cl)cc2)Oc2ccc(Cl)cc2)c1", "activity change": "inconclusive: -48.1%"}, {"smiles": "COC(=O)C1=C(c2ccc(OC(F)(F)F)cc2)C[C@@H]2CC[C@H]1N2C(=O)NCCCOC(C)C", "activity change": "inactive: -5.79%"}, {"smiles": "COC(=O)[C@@H]1N=C(c2ccc(OC)cc2)O[C@]12C(=O)N(Cc1ccc(OC)cc1)c1ccccc12", "activity change": "inactive: 0%"}, {"smiles": "c1ccc(CNc2c3c(nc4ccccc24)CCC3)cc1", "activity change": "active: -93.2%"}, {"smiles": "CCOc1ccc(-c2cc(C)[n+](CCN(CC)CC)c(-c3ccc(OCC)cc3)c2)cc1", "activity change": "active: -82.5%"}, {"smiles": "COC(=O)C1=C(N)Oc2c(c(=O)oc3ccccc23)C1c1cccnc1", "note": "(centres undefined)", "activity change": "inactive: 47.1%"}, {"smiles": "FC(F)(F)c1ccc2c(c1)ncn2C1CCN(Cc2nnnn2C2CCCCC2)CC1", "activity change": "inconclusive: -35.1%"}, {"smiles": "O=C1NC(=O)N(c2ccccc2)C(=O)/C1=C\\c1ccc([N+](=O)[O-])s1", "activity change": "active: -69.4%"}, {"smiles": "COC(=O)C1=C(c2ccc(-c3ccccc3)c(F)c2)C[C@@H]2CC[C@H]1N2C(=O)N1CCOCC1", "activity change": "inconclusive: -37.8%"}, {"smiles": "CCCNC(=O)N1[C@H]2CC[C@@H]1C(C(=O)OC)=C(c1ccc(Cl)c(C(F)(F)F)c1)C2", "activity change": "inactive: -11%"}, {"smiles": "O=C(NC1CN2CCC1CC2)c1cc(Cl)c([N+](=O)[O-])c2nc[nH]c12", "note": "(centres undefined)", "activity change": "active: -104%"}, {"smiles": "CCOC(=O)[C@]12Cc3cc(Cl)ccc3[C@H]1N(C1CCCCC1)C(=O)c1ccccc12", "activity change": "active: -114%"}, {"smiles": "CCC(C)NC(=O)CCC(=O)OC1O[C@H]2OC3(C)CC[C@H]4[C@H](C)CCC(C1C)C24OO3", "note": "(some centres undefined)", "activity change": "inconclusive: -34.7%"}, {"smiles": "COc1ccc(C(=O)CC(c2ccc3c(c2)OCO3)c2c(O)c3ccccc3oc2=O)cc1OC", "note": "(centres undefined)", "activity change": "inactive: -28.1%"}, {"smiles": "Cc1ccccc1-n1c(O)c(/C=C2/C(c3ccccc3)=Nc3ccccc32)c(=O)[nH]c1=O", "activity change": "inconclusive: -36.9%"}, {"smiles": "FC(F)(F)c1ccc(CNCCc2ccc3c(c2)OCO3)cc1", "activity change": "inconclusive: -33.5%"}, {"smiles": "COC(=O)C1=C(c2ccc(F)cc2OCc2ccccc2)C[C@@H]2CC[C@H]1N2C(=O)NC(C)C", "activity change": "inactive: -14.4%"}, {"smiles": "CCOP(=O)(OCC)C(O)c1ccc(OC)c(OC)c1", "note": "(centres undefined)", "activity change": "inactive: 8.17%"}, {"smiles": "COc1cccc(C(c2nnnn2C2CCCC2)N2CCC3(CC2)C(=O)NCN3c2ccccc2)c1OC", "note": "(centres undefined)", "activity change": "inconclusive: -36.4%"}, {"smiles": "CCSC1=NN1c1cc(C)nc(N)n1", "activity change": "inconclusive: -35.2%"}, {"smiles": "CN1CN(c2ccccc2)C2(CCN(CCCSc3ccccc3NC(=O)/C=C/c3ccccc3)CC2)C1=O", "activity change": "active: -71.3%"}, {"smiles": "Nc1c2c(nc3sc4c(c13)CCCC4)CCCC2", "activity change": "active: -88%"}, {"smiles": "CN(C)CCN=Cc1c(O)n(C2CCCCCC2)c(=O)[nH]c1=O", "activity change": "inactive: 8.64%"}, {"smiles": "CC(C)(C)c1ccc(CN2C(=O)CN=C(c3ccccc3)c3ccccc32)cc1", "activity change": "inconclusive: -43.5%"}, {"smiles": "CCN(CC)CCNCC(=O)Nc1ccc(Cl)cc1C(=O)c1ccccc1", "activity change": "inconclusive: -35.6%"}, {"smiles": "O=C1CN=C(c2ccc(Br)cc2)c2c(sc3c2CCCC3)N1CCN1CCCCC1", "activity change": "inconclusive: -42%"}]}]}
